From PubChem BioAssay AID743279 (National Center for Advancing Translational Sciences (NCATS), 2014)
Where “and” joins values, the source holds several entries; their conditions need not be identical. Equal values may be shown once. Hit rate of the full screen: of about 360,000 compounds, about 17,000 (4.7%) were called active. The shares of active, inactive and inconclusive entries below differ from those in the screen. Rule as the data show it: active = activity change below about -50%; inconclusive = mostly about -30% to -49%; inactive = weaker than that.

experiment: qHTS for Inhibitors of Inflammasome Signaling: IL-1-beta AlphaLISA Primary Screen; conditions: THP-1 LPS/ATP IL-1B secretion, 16 h; at 57.5 µM, stronger effect = lower value
Method in brief: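 THP-1 cells pretreated 1 hr with compounds (up to 57.5 uM final), then stimulated with LPS (250 ng/mL final) plus ATP (1.25 mM final); secreted IL-1B measured by AlphaLISA after 16 hr, decreased signal indicating inhibition.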
% is scaled to controls: 0 for no effect and ±100 for the full control effect.

| Structure (SMILES) | activity change |
| --- | --- |
| COc1cccc(-n2c(SCC(=O)Nc3nc4ccccc4s3)nc3ccccc3c2=O)c1 | inconclusive: -36.1% |
| CC(=O)Nc1ccccc1N(CC(O)Cn1c2ccccc2c2ccccc21)S(=O)(=O)c1ccc(C)cc1 (configuration not stated) | inconclusive: -40.3% |
| O=C(COc1ccc2ccccc2c1)N1CCCC1 | inconclusive: -31.4% |
| Cc1ccc(C(=O)N(C)Cc2ccc(N3CCOCC3)cc2)cc1S(=O)(=O)NCc1ccccc1 | inactive: -19.9% |
| O=C(c1ccc(Cl)c(Cl)c1)N1CCC(=O)N(C(COCc2ccc(Cl)cc2)Cc2ccccc2)CC1 (configuration not stated) | active: -73.1% |
| Cc1[nH]c(C)c(S(=O)(=O)N(C)Cc2ccccc2)c1C(=O)N1CCCC1 | inactive: 5.72% |
| Cc1ccc(S(=O)(=O)N2CCCCC2)cc1NCC(=O)Nc1ccc(Br)cc1F | inconclusive: -46.8% |
| O=C(Nc1ccc2snnc2c1)N1CCN(c2ccccc2)CC1 | inconclusive: -38.2% |
| CCCCOc1ccc(CSCCN)cc1Cl | active: -83.3% |
| CCN(CC)S(=O)(=O)c1ccc2c(c1)nc(SCC(=O)N1CCOCC1)n2-c1ccccc1OC | inconclusive: -37.2% |
| COc1cc(OC)c(OC)cc1CCC(C)NC(=O)Cc1ccccc1 (configuration not stated) | inactive: 14.9% |
| CCC(NC(=S)NCc1ccc(F)cc1)c1ccc(C)cc1 (configuration not stated) | inconclusive: -49.6% |
| CCCN1Cc2cccc(C(=O)N3CCN(c4cc(Cl)ccc4C)CC3)c2C1=O | inconclusive: -37.2% |
| COc1cc2c(cc1OC)C(c1cccc([N+](=O)[O-])c1)N(C(=O)c1ccc(F)cc1)CC2 (configuration not stated) | inconclusive: -34.2% |
| CCCCNc1c(-c2cccc(SC(C)CC)c2)nc2ccc(Cl)cn12 (configuration not stated) | inactive: -27.4% and inactive: -1.6% |
| CSc1nc(N)nc(SCCS(=O)(=O)c2ccc(Cl)cc2)c1C#N | inconclusive: -45.7% |
| COc1cc2ccccc2cc1C(=O)Nc1ccc(CN2CCOCC2)cc1 | inconclusive: -32.8% |
| COc1ccc(NC(=O)CN2CCC(C)CC2)c([N+](=O)[O-])c1 | inconclusive: -48.6% |
| COc1ccc(OCCN2C(=O)NC3(CCc4ccccc4C3)C2=O)cc1 (configuration not stated) | inactive: 25.3% |
| CCOC(=O)c1ccc(N=c2sc(C(=O)OC)cc(=O)n2-c2ccc(C(=O)OCC)cc2)cc1 | active: -72.4% |
| Cc1c(C(=O)N2CCOCC2)c(S(=O)(=O)Nc2cccc(Br)c2)c(C)n1C | inconclusive: -40.3% |
| COc1ccc(C(=O)/C=C/c2cn(CC(O)CN3CCOCC3)c3ccccc23)cc1 (configuration not stated) | active: -93.5% |

| Structure (SMILES) | activity change |
| --- | --- |
| CN(C)CCCNc1cc(C(C)(C)C)nc2c(-c3ccccc3)cnn12 | active: -98% |
| Cc1ccc(C(=O)Nc2ccsc2C(=O)O)cc1 | inactive: -27.6% |
| NC(=O)c1cccn1-c1ncc(C(F)(F)F)cc1Cl | inactive: 2.81% |
| CC(C)=CCCC1=CCC(/C=N/NC(N)=O)C(C)C1 (configuration not stated) | inconclusive: -49.7% |
| O=C(Nc1cccc(C(F)(F)F)c1)c1cccc(NS(=O)(=O)c2ccc(O)c(C(=O)O)c2)c1 | inactive: 7.13% |
| CCOC(=O)C1CCCN(C(=O)/C(=C/c2ccco2)NC(=O)c2ccccc2)C1 (configuration not stated) | inactive: 11.6% |
| COC(=O)c1[nH]c2cccc(OC)c2c1NC(=O)CN(C)CC1OCCO1 | inconclusive: -34.4% |
| CC1CCN(c2nc(-c3ccccc3O)nc3ccccc23)CC1 | inactive: 25.4% |
| COCCCNC(=O)CSc1nc2c(sc(=S)n2-c2cc(Cl)ccc2OC)c(=O)[nH]1 | inactive: 5.73% |
| CCN(CC)CC#CCC(C)(c1ccccc1)c1ccccc1 | inconclusive: -49.4% |
| NC(=O)/C(=N\OC(=O)c1ccco1)c1nc(-c2ccc(Br)cc2)cs1 | inconclusive: -30.1% |
| Cn1c(=O)c2c(nc(NCc3cccnc3)n2Cc2ccc(Cl)cc2)n(C)c1=O | inconclusive: -37% |
| O=C(NC1C/C=C\C(c2ccccc2)N(c2ccccc2)C(=O)C1)OCC1c2ccccc2-c2ccccc21 (configuration not stated) | inconclusive: -30.2% |
| COc1cccc(-c2ccc(-c3noc(-c4cccs4)n3)c(OC)n2)c1 | inconclusive: -35.7% |
| O=S(=O)(c1ccc(Cl)cc1)N1CCC(n2cccc2)CC1 | inconclusive: -30.9% |
| Cc1ccc(N2C(=O)c3ccccc3C2C(=O)c2cc(C)ccc2O)cc1 (configuration not stated) | inconclusive: -31.9% |
| COc1ccc(/C=C/c2n[nH]c(=O)c(C#N)c2C)cc1 | active: -96.9% |
| O=C(NCc1cccnc1)c1ccc(-c2ccc(Cl)cc2)o1 | inactive: -1.53% |
| CCn1cc(/C=N\NC(=O)c2ccc(Cl)cc2)cn1 | inactive: -3.84% |
| Cc1ccc(/C=C/C(=O)Nc2cccc3cccnc23)o1 | inactive: 0% |
| COc1ccccc1N1CCN(/N=C/C(Cl)=C/c2ccccc2)CC1 | inconclusive: -46.7% |
| COc1ccc(C(C)=O)cc1CSc1nnc(Nc2ccc(C)cc2C)s1 | inconclusive: -36.9% |

| Structure (SMILES) | activity change |
| --- | --- |
| CCn1c(NCc2ccccn2)nc2c1c(=O)n(C)c(=O)n2C | inactive: -2.74% |
| CN1CCc2c(sc(/N=C/c3c[nH]c4ccccc34)c2C(N)=O)C1 | inconclusive: -31.6% |
| CCOc1ccccc1NC(=O)CCC(=O)Nc1nnc(C2CCCCC2)s1 | inactive: 47.9% |
| CCOc1ccc(C(C)NC(=O)Cc2ccccc2F)cc1OCC (configuration not stated) | inactive: -1.18% |
| COc1ccc2sc(N(CCCN(C)C)C(=O)c3ccc(S(=O)(=O)N4CCCC4)cc3)nc2c1 | inconclusive: -40% |
| C/C(=C\C(=O)c1ccc(Cl)cc1Cl)N(C)C | inactive: 12.8% |
| O=C(N/N=C/c1cccs1)c1[nH]ncc1Br | inconclusive: -32.4% |
| O=C(CCCc1nc(-c2ccccc2)no1)NC1CCCCC1 | inactive: 23.6% |
| CC(C)C(=O)N(Cc1ccccc1)c1ccccn1 | inconclusive: -36.5% |
| Cc1cc(C(=O)COc2ccc3ccc(=O)oc3c2)c(C)n1C | inconclusive: -43.5% |
| COc1ccccc1-n1c(=S)[nH]c2c(sc(=S)n2-c2ccccc2C)c1=O | inconclusive: -31.9% |
| Nc1ccc2nc(NC(=O)C3CCCCC3)sc2c1 | inconclusive: -36% |
| COc1ccccc1/C=C(\NC(=O)c1ccccc1)C(=O)NCc1ccco1 | inactive: -4.44% |
| Cc1ccc(S(=O)(=O)N2CCOCC2)cc1NC(=O)c1cc2c(s1)CCC2 | inconclusive: -33.6% |
| Cc1ccc(NC(=O)c2ncn(CC(=O)N[C@H](CO)Cc3c[nH]c4ccccc34)n2)cc1C | inactive: -9.8% |
| CC(NC(=O)c1cc2cc(Br)ccc2oc1=N)c1ccccc1 (configuration not stated) | active: -50.7% |
| O=C(/C=C/c1cn(-c2ccccc2)nc1-c1cccc(Cl)c1)N1CCN(c2ccccn2)CC1 | inconclusive: -43.8% |
| COc1ccc(-c2nc(C#N)c(NCCc3ccccc3)o2)cc1OC | inconclusive: -49.1% |
| CC1(NC(=O)Cn2cc(C(F)(F)F)ccc2=O)CCS(=O)(=O)C1 (configuration not stated) | inactive: 17.2% |
| Cc1ccn2c(C(=O)CSc3ccccc3)c(C)nc2c1 | inactive: -7.76% |
| CCc1nc2ccc(C(=O)N(C)Cc3ccco3)cn2c1N(C)CCCc1ccccc1 | inconclusive: -37.9% |
| Cc1cnc(NC(=O)Cc2ccc(C)c(C)c2)s1 | inactive: 26.9% |

| Structure (SMILES) | activity change |
| --- | --- |
| CCN(CCCNC(=O)c1cc2c(-c3cccc(OC)c3)nn(C)c2s1)Cc1ccccc1 | active: -84.5% |
| Cc1cc(C)c2sc(N(CCCN(C)C)C(=O)c3ccc(S(=O)(=O)N(C)Cc4ccccc4)cc3)nc2c1 | active: -110% |
| O=C1C(=O)N(Cc2cccnc2)C(c2cccc(Br)c2)/C1=C(/O)c1ccc2c(c1)OCO2 (configuration not stated) | inactive: 18.9% |
| COc1cc(CN(C)CCc2ccccc2)ccc1OCc1ccccc1 | inconclusive: -48.4% |
| O=c1ccc(/C=C/c2ccccc2)nn1Cc1ccccc1 | inactive: -19.8% |
| Cc1ccc(N(C(C)C(=O)Nc2cc(Cl)ccc2Oc2ccccc2)S(C)(=O)=O)cc1 (configuration not stated) | active: -69.2% |
| C=C(C)[C@@H]1CC[C@]2(C(=O)O)CC[C@]3(C)[C@H](CC[C@@H]4[C@@]5(C)CC[C@H](O)C(C)(C)[C@@H]5CC[C@]43C)[C@@H]12 | inactive: 60.1% |
| O=C(/C(=C/c1cccc(Cl)c1)c1nc2ccccc2[nH]1)c1ccccc1 | active: -95.6% |
| N=C1CCC(=N)c2c1c(O)c1ccccc1c2O | inconclusive: -35.7% |
| CCOc1ccc(CCNC(=O)CCc2nnc3ccc(N4CCOCC4)nn23)cc1 | inconclusive: -32.7% |
| O=C(c1cccc(S(=O)(=O)N2CCN(c3ccc(F)cc3)CC2)c1)N1CCN(c2ccccc2O)CC1 | inconclusive: -35.9% |
| COc1ccc2c(c1)CCc1cnc(N)nc1-2 | inconclusive: -32.6% |
| Cc1ccc(C2CC(=O)N3CN(Cc4ccco4)CSC3=C2C#N)cc1 (configuration not stated) | inactive: 17.8% |
| N#Cc1cc([N+](=O)[O-])ccc1N1CCN(c2ccccc2O)CC1 | inconclusive: -44.2% |
| O=C(Nc1nc(-c2ccc(S(=O)(=O)N3CCCC3)cc2)cs1)c1cccs1 | inconclusive: -30.3% |
| CCc1ccc(OCC2NCCc3cc(OC)c(OC)cc32)cc1 (configuration not stated) | inactive: -14.7% |
| O=C(/C=C/c1cccc([N+](=O)[O-])c1)Nc1cccc(NC(=O)c2cccs2)c1 | active: -59.5% |
| Cc1cc(C)n(-c2nc3c(c(=O)[nH]c(=O)n3C)n2C(C)C)n1 | inactive: 12.7% |
| Cc1cc(C)n(-c2ccc(C(=O)Nc3ccc4c(c3)OCO4)cc2)n1 | active: -54.5% |
| CC1CCCCN1C(=O)CSc1nc(C2CC2)nc2c1cnn2-c1ccccc1 (configuration not stated) | active: -90.7% |
| CCN(CC)CCCNC(=O)c1cc2c(-c3cccc(OC)c3)nn(C)c2s1 | inconclusive: -31.6% |
